Reference: PMC12040169 (PLOS Biology, 2025)
Some of the results follow.

tested on: T1, C. trachomatis L2/434/Bu expressing GFP (CTL2-GFP); design: species or system HeLa; C. trachomatis total inclusion area by high-content imaging, normalised to DMSO; details: total inclusion area; 28.5 h, 10 µM; inhibitor
T1 construct: L2/434/Bu GFP intracellular growth in HeLa cells
Outline: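 Imaging read-out: GFP inclusions and Hoechst nuclei captured by high-content imaging after fixation. Inclusion area/number = chlamydial growth; nuclei count = host cell viability. MIC calculated per earlier method.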

Compound	% of control remaining
CC(=O)Oc1ccc(NC(=O)CC2Nc3cc(C)c(C)cc3NC2=O)cc1 (stereo not shown) [CBK263088]	74.7387
Fc1ccccc1/C=N/Nc1nccnc1Cl [CBK261711]	85.8801
Cc1ccc(O)c(NC(=S)NC(=O)COc2ccccc2)c1 [CBK264373]	110.074
O=C(c1cccs1)N1CCC[C@H]1[C@H](O)c1nccs1 [CBK284285]	81.35
CC(C)(C)OC(=O)N1CCCN(c2ccc(S(=O)(=O)c3ccccc3)c([N+](=O)[O-])c2)CC1 [CBK138502]	85.2778
CC(=O)Nc1ccc(S(=O)(=O)N2CCN(c3ccc([N+](=O)[O-])c(N4CCOCC4)c3)CC2)cc1 [CBK264764]	98.3181
Cc1ccc(OCc2nnc(SCC(=O)c3ccc(Br)cc3)n2N)cc1 [CBK266482]	103.658
CC(=O)Nc1ccc(S(=O)(=O)N2CCN(S(=O)(=O)N3CCCCCC3)CC2)cc1 [CBK268983]	82.9138
COc1ccc(C(C)C)cc1-c1cnc2cccnc2c1N [CBK081211]	89.6285
Nc1nc(C2CC(N)C2)cc(N2CCC(Oc3ccccc3Cl)CC2)n1 (stereo not shown) [CBK307356]	14.8228
CC(C)n1c(CN2CCOCC2)nc2c1c(=O)n(C)c(=O)n2C [CBK306201]	58.6639
Cc1ccc(C2CCCN2C(=O)c2cccn(CC(=O)NC3CCCCC3)c2=O)cc1C (stereo not shown) [CBK286009]	99.5756
O=C(Nc1cccnc1)N1CCN(Cc2ccccc2)CC1 [CBK155663]	99.0275
c1coc(-c2nccnc2NCCc2c[nH]c3ccccc23)c1 [CBK037316]	115.953
CNC(=O)CN1CCN(c2cc(C#N)ccc2C(F)(F)F)CC1=O [CBK306441]	68.4616
O=c1[nH]nc2c(SC3CCCCC3)nccn12 [CBK288471]	30.1614
CC(=O)c1cccc(-n2c(CCC(=O)O)ccc2-c2ccc(Br)cc2)c1 [CBK131888]	100.07
C1CN=C(SCCCCSC2=NCCCN2)NC1 [CBK278223B]	101.704
O=C(/C=C/c1ccccc1)NC(NCc1cccnc1)C(Cl)(Cl)Cl (stereo not shown) [CBK261804]	61.6805
COc1ccc([C@@]23CC[C@@H](NC(=O)Nc4ccc5c(c4)OC(F)(F)O5)C[C@@H]2N(C)CC3)cc1OC [CBK073743T]	82.2098
CCCc1c(Cc2c(Cl)cccc2Cl)c(=O)n(C)n1C [CBK115466]	92.8685
Cc1cc(=O)n(C)c(=O)n1CCCCCN1CCCC1 [CBK027386]	57.5318
O=C(CCOc1ccccc1F)Nc1cnc(-c2ccc(F)cc2)c(-c2ccsc2)n1 [CBK036897]	114.651
O=C1CCC[C@]2(CN(Cc3ccccc3)C[C@H]2c2ccncc2)N1 [CBK283348]	117.491
O=C(CCC1COc2ccccc2O1)N1CCN(Cc2ccccc2)CC1 (stereo not shown) [CBK269767]	53.9814
O=C(O)c1ccc(-n2ncc3ccccc3c2=O)cc1 [CBK288229]	106.795
CC(C)(C)OC(=O)N1CCC(CNS(C)(=O)=O)CC1 [CBK003925]	100.133

Compound	% of control remaining
CS(=O)(=O)N[C@H]1CCN2C(=O)c3cc(-c4ccc(Cl)cc4)ccc3NC(=O)[C@@H]2C1 [CBK289565]	80.8704
Cc1cccc(C)c1NC(=O)Nc1cc(N2CCNCC2)c2occc2c1 [CBK061748C]	85.1992
Fc1ccc(-c2c[nH]nc2C2CCOCC2)cc1 [CBK283464]	85.0977
CCc1nnc(SC(C)C(=O)N2CCCc3ccccc32)[nH]1 (stereo not shown) [CBK306009]	51.8581
COc1nccc(N2CCCC(CO)(CC3CC3)C2)c1C#N (stereo not shown) [CBK307553]	93.0182
C[C@]12CN(Cc3ccccc3)C[C@H]1NC(=O)c1ccccc1C2O (stereo partly shown) [CBK282302]	64.8079
O=C(COC(=O)c1cc(O)nc2ccccc12)c1ccc(Br)cc1 [CBK262125]	99.6147
O=C1C(=CNCCN2CCOCC2)C(=O)c2ccccc21 [CBK263008]	63.4167
CCOC(=O)c1sc(-c2ccccc2)nc1OCc1ccccc1Cl [CBK067727]	93.6805
CN(C)C(=O)c1cccc(S(=O)(=O)NCC2CCCO2)c1 (stereo not shown) [CBK304867]	92.6353
CN(C)CCn1c(=O)[nH]c2ncc(-c3ccco3)nc21 [CBK064251]	75.1721
O=C(NCc1ccccc1)c1ccccc1NC(=O)C1CCCCC1C(=O)O (stereo not shown) [CBK269283]	97.9009
CC(NC(=O)C1C=CCN1S(C)(=O)=O)c1ccc2c(c1)CCC2 (stereo not shown) [CBK282667]	115.749
COc1cccc(C(=O)N2CCN(C(=O)Nc3ccc(C(F)(F)F)cc3)CC2)c1 [CBK154788]	95.295
CC(C)CCNC(=O)N(CCC#N)C1CCCCC1 [CBK156378]	92.1576
COC(=O)Nc1ccc(S(=O)(=O)N2CCCCC2C(=O)O)cc1 (stereo not shown) [CBK058086]	101.475
COc1cccc(C(=O)N2CCC(Cc3ccccc3-c3ccccc3C)(C(N)=O)CC2)c1 [CBK285722]	108.58
CCN(Cc1ccccc1)Cc1nc2ccccc2c(=O)[nH]1 [CBK283203]	84.7028
O=C(O)CN1C(=O)CC2(C1=O)C(=O)N(Cc1ccccc1)c1ccccc12 (stereo not shown) [CBK076093]	93.8858
Clc1cccc(CNc2nccnc2-c2ccoc2)c1 [CBK036616]	98.9832
O=C(CC1C(=O)N(c2ccccc2)C(=S)N1NC(=O)c1ccccn1)Nc1ccc(Cl)cc1 (stereo not shown) [CBK266711]	59.292
COc1ccc(Nc2ccc(-c3ccc4c(c3)OCO4)cn2)c(C)c1 [CBK036799]	82.7102
CCn1c(=O)n(CC(=O)N2CC(C)CC(C)C2)c2cccnc21 (stereo not shown) [CBK283845]	78.8459
Oc1ccc(CN2CCN(Cc3ccc(Br)s3)CC2)c2cccnc12 [CBK295645]	63.4045
Cc1nc2c(-c3cccs3)c(C)nn2c(O)c1C [CBK283728]	96.9462
O=C1COc2ccccc2C/C=C/CC2(CCCN(C(=O)CN3CCCC3=O)C2)CN1 (stereo not shown) [CBK292032]	98.776
CCOC(=O)c1sc(-c2ccc(C(C)(C)C)cc2)nc1O [CBK078538]	98.7865

Compound	% of control remaining
CCn1c2ccccc2c2cc(NC(=O)CN(C)S(=O)(=O)c3ccc(C)cc3)ccc21 [CBK266756]	115.742
C#CCn1cc(CN2CCc3c(nc(C)[nH]c3=O)C2)c2ccccc21 [CBK282382]	120.387
Cn1cc(C2CCCCCN2C(=O)c2cccc(F)c2)cn1 (stereo not shown) [CBK284970]	66.343
COc1ncc(-c2nccnc2N[C@H](C)c2ccccc2)c(OC)n1 [CBK036588]	107.043
COc1cccc2sc(NC(=O)c3c(F)cccc3F)nc12 [CBK149283]	106.534
NCCCC(C(=O)O)C(=O)c1ccccc1-c1ccccc1 (stereo not shown) [CBK286941]	84.0861
CN(C)S(=O)(=O)c1ccc(-c2nn(-c3ccccc3)cc2/C=C(\C#N)c2nc3ccccc3c(=O)[nH]2)cc1 [CBK266266]	87.5856
CCCn1cc(C(=O)NCc2ccc(Cl)cc2)c(=O)c2cc(CN3CCOCC3)sc21 [CBK018478]	99.8249
Cc1ccc(S(=O)(=O)/N=C(\Nc2nc3ccccc3o2)NS(=O)(=O)c2ccc(C)cc2)cc1 [CBK266728]	72.1539
CN(C)c1ccc(-c2nnc([C@H]3CCN(C(=O)c4ccccc4)C3)o2)cc1 [CBK289407]	93.4841
COc1ccc(Cc2nc(CC3CCCOC3)n(CC(F)(F)F)n2)cc1 (stereo not shown) [CBK307140]	87.4452
CCC(=O)N1CCCc2cc(C(O)CN3CCN(c4ccc(F)cc4)CC3)ccc21 (stereo not shown) [CBK286480]	16.5074
COCOc1ccc(-c2nccnc2OCCc2cccs2)cc1 [CBK106911]	84.6956
NS(=O)(=O)c1ccc(-c2nc(-c3ccccc3)no2)cc1 [CBK269957]	104.861
Cc1ccc2nc(-c3ccc(/N=C/c4cccc(O)c4O)cc3)sc2c1 [CBK261583]	95.9545
Nc1nc2ccccc2cc1-c1cccs1 [CBK112549]	73.5488
Cc1ccc(S(=O)(=O)NCC(=O)N2CCN(Cc3ccccc3)CC2)cc1 [CBK265991]	108.035
COc1cc(/C=N/NC(N)=O)ccc1OC(=O)c1sc2ccccc2c1Cl [CBK262265]	97.3293
CCCNC(=O)N1CCN2C(=O)c3cc(-c4ccccc4F)ccc3NC(=O)[C@@H]2C1 [CBK289595]	101.12
CCCCCNC(=O)C1CCN(Cn2c(=O)oc3cc(Cl)ccc32)CC1 [CBK298290]	102.13
Cn1nc(-c2ccc(N3CCCCC3)c(NC(=O)COc3ccccc3)c2)c2ccccc2c1=O [CBK265780]	117.621
CN1CCC(N(C)C(=O)NCc2cccc3ccccc23)C1 (stereo not shown) [CBK155999]	90.8838
O=C(O)COc1ccc(N2C(=O)C(O)=C(C(=O)c3ccccc3)C2c2cccc(F)c2)cc1 (stereo not shown) [CBK287010]	112.741
O=C(CSc1ccc(F)cc1)Nc1cc(Cl)ccc1O [CBK268685]	93.7897
CC1CCCN(Cc2c(C3CCCNC3)[nH]c3ncccc23)C1 (stereo not shown) [CBK285112]	58.9797
